Test results taken from PMC4336329 (PLoS ONE, 2015).
Screen size: about 310,000 compounds; about 14,000 (4.5%) showed an effect of 50% or more. The effect is printed as a negative number. This is one part of the list.

Each molecule was assayed against human ether-à-go-go-related gene (hERG) potassium channel (human, UniProt Q12809) (assay: primary screen, population patch clamp on CHO cells stably expressing hERG).
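Note: peak tail current of the secondary pulse compared with the same well before compound.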

Chain of human ether-à-go-go-related gene (hERG) potassium channel (Q12809 whole entry, looked up): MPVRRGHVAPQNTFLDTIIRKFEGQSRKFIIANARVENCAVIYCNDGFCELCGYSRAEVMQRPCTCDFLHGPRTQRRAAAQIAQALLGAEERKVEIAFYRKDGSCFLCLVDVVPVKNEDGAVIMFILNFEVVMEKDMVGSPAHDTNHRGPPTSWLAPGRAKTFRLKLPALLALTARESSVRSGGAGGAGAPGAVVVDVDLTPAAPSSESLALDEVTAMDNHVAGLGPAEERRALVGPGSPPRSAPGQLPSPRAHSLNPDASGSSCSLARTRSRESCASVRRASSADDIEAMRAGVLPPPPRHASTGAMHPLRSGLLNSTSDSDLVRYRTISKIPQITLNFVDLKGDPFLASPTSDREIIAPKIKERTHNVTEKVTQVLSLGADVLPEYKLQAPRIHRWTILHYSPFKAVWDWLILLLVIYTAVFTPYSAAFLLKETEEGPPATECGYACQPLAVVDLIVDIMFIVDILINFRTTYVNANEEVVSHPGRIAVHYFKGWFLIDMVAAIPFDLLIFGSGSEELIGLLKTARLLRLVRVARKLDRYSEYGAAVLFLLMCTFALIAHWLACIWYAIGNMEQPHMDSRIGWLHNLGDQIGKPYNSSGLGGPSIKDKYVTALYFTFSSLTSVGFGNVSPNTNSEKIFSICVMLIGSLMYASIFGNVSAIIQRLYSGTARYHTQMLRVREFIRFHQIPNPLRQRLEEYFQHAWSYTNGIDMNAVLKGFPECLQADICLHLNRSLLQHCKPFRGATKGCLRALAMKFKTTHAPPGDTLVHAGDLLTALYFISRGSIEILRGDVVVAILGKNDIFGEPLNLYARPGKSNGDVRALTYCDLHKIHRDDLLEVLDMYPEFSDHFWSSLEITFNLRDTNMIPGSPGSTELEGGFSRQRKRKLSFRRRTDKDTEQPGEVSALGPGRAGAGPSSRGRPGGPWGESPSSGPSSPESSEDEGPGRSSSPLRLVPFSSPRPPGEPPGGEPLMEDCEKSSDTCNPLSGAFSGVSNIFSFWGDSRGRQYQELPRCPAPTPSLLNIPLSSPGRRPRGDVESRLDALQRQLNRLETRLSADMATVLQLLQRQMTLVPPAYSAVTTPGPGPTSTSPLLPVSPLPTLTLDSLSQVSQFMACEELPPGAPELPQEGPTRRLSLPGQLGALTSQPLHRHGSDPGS

| SMILES | hERG current change (%, negative = inhibition) at 10uM |
| --- | --- |
| CC(C)C[C@@H](CO)N1CCN(Cc2ccc([N+](=O)[O-])cc2)CCC1=O | -26.5% |
| C=CCN1C(=O)c2ccc(C(=O)N(CCOC)c3c(N)n(CCCC)c(=O)[nH]c3=O)cc2C1=O | 3.88% |
| CN1CCN(c2nc3cc(C(F)(F)F)ccc3n3cccc23)CC1.O=C(O)/C=C\C(=O)O | -41.7% |
| CCNS(=O)(=O)c1ccc(NC(=S)N2CCc3ccccc32)cc1 | 22.9% |
| Cc1ccc(CNC(=O)CSc2ccsc2[N+](=O)[O-])cc1 | -4.87% |
| CCN(CC)CC(=O)Nc1ccccc1SCC(=O)Nc1ccsc1C(=O)OC | -22.7% |
| COCCN(C(=O)CCC(=O)Nc1nccs1)C(C(=O)NC(C)(C)C)c1ccc(F)cc1 (centres unmarked) | -1.98% |
| Cc1ccc(S(=O)(=O)N2CCCCC2)cc1C(=O)NCCC1=CCCCC1 | -8.73% |
| Cc1ccccc1Cn1nc(C)c(NC(=O)c2cc3n(n2)C(C(F)F)CC(C(F)F)N3)c1C (centres unmarked) | -2.7% |
| Cc1cccc(NC(=O)CSc2nc3[nH]ncc3c(=O)[nH]2)c1 | 8.61% |
| Fc1ccccc1/C=N/Nc1ncnc2nc[nH]c12 | -0.351% |
| CC1(C)CC(=O)C2=C(C1)N(c1ccc(F)cc1)C(=O)CC2c1ccccc1 (centres unmarked) | 14% |
| COc1cc(Cl)ccc1OCc1cc(C(=O)N(C)CCc2cnn(C)c2)no1 | -28% |
| COc1ccc(CNCCC(c2ccc(OC)cc2)c2ccccc2OC)cc1 (centres unmarked) | -74.2% |
| Cn1c(=O)n(Cc2ccccc2Cl)c(=O)c2c1[nH]c(=S)n2C | 17.3% |
| COc1nc(NCC2CCCO2)nc(N2CC3CC(C2)c2cccc(=O)n2C3)n1 (centres unmarked) | 5.37% |
| CCCn1c(=N)c(C#N)cc2c(=O)n3cccc(C)c3nc21 | -53% |
| CCOC(=O)CCc1c(C)c2ccc(O)cc2oc1=O | 2.92% |
| COc1ccc(CC(=O)c2ccccc2C(=O)O)cc1 | 6.93% |
| O=C(CCS(=O)(=O)c1ccc(Br)cc1)N1CCN(c2ccccc2Cl)CC1 | -18.5% |
| CCc1cc(C(=O)N2CCCC(CCC(=O)NCc3cccc(OC)c3)C2)no1 (centres unmarked) | 2.48% |
| COc1ccc(N2C(=O)Cc3c2nc(N)c(C#N)c3N)cc1 | 14.4% |

| SMILES | hERG current change (%, negative = inhibition) at 10uM |
| --- | --- |
| CCS(=O)(=O)c1ccc2oc(SCC(=O)Nc3ccc(OC)cc3OC)nc2c1 | 26.6% |
| CN(CC(=O)Nc1cccc(F)c1)C(=O)c1ccc2c(c1)OCCO2 | 7.95% |
| COc1cccc(CN(C)C(=O)Cc2c[nH]c3ccccc23)c1OC | 16.7% |
| Cc1n[nH]c(=S)n1/N=C/c1ccc(OCc2ccc(Cl)cc2Cl)cc1 | 11.1% |
| Cc1cccc(C(=O)NCC(c2ccc(F)cc2)N2CCOCC2)c1 (centres unmarked) | -2.49% |
| CC(=C/c1ccccc1)/C=C1/SC(N2CCOCC2)=NC1=O | -20.1% |
| CCOC(=O)C1=C(C)NC(=O)NC1c1cc2c(cc1Br)OCO2 (centres unmarked) | 6.32% |
| O=C(O)CCCNC(=O)CCCn1nnc2ccccc2c1=O | 10.8% |
| CNC(=O)c1cc(C(=O)c2ccc(Cl)cc2)c(Br)[nH]1 | 7.47% |
| Cc1nn(CC(=O)Nc2ccc(F)cc2)c(=O)c2ccccc12 | 4.75% |
| Cc1ccc(S(=O)(=O)N2CCOCC2)cc1C(=O)NC(=S)N1CC(C)CC(C)C1 (centres unmarked) | -1.25% |
| CC(C)(C)c1cc(-n2ccnc2)n2ncc(-c3ccc(Cl)cc3)c2n1 | 3.26% |
| CCN1C(=O)/C(=C2/C=Cc3cc(C)ccc3N2CC)N(C)C1=S | -54.8% |
| C=CCN1C(=O)N(c2ccc(Cl)cc2)C(=O)C1CC(=O)Nc1ccc(F)cc1 (centres unmarked) | -30.3% |
| CCOC(=O)/C(C#N)=C1/C=CN(c2ccccc2)C=N1 | -1.94% |
| Cc1cccc(-c2nc(S(=O)(=O)c3ccc(F)cc3)c(NCCCN3CCOCC3)o2)c1 | -69.4% |
| CC1(C)CC2CC(C)(CN2S(=O)(=O)c2ccc(C(=O)Nc3cccc(S(=O)(=O)N4CCOCC4)c3)cc2)C1 (centres unmarked) | 4.79% |
| C[C@@H](CN1C2=NC[C@H](C)N2C[C@H]1Cc1ccc(O)cc1)NC(=O)CCC1CCCCC1 | -11.9% |
| O=C(O)c1c2c(nc3ccccc13)CCCCC2 | 15.8% |
| Cc1cccc(-c2noc(CN(C(=O)C34CC5CC(CC(C5)C3)C4)C(C)C)n2)c1 | 24.1% |
| CC(NC(=O)c1ccc(Br)cc1)c1ccccc1 (centres unmarked) | -0.216% |
| CCOc1ccc(CN(C)C(=O)CCN2C(=O)c3ccccc3C2=O)cc1OC | 7.88% |

| SMILES | hERG current change (%, negative = inhibition) at 10uM |
| --- | --- |
| COc1ccc(CNC(=O)CSc2nnc(C)s2)cc1 | 3.85% |
| COc1ccccc1NC(=S)NC12CN3CN(CN(C3)C1)C2 | 28.1% |
| Cc1cc(C)nc(NS(=O)(=O)c2ccc(NC(=O)CN3C(=O)C4CC=CCC4C3=O)cc2)n1 (centres unmarked) | 10.1% |
| Cn1c(=O)c(Oc2cc(Cl)cc(Cl)c2)nc2ccccc21 | 3.25% |
| Cc1ccc(Nc2cc(C)nc3nc(C)nn23)c(C)c1 | 9.08% |
| CC(C)[C@H](NC(=O)c1ccccc1)C(=O)Nc1cccc(S(=O)(=O)N2CCOCC2)c1 | -2.22% |
| CCOc1ccccc1N(CC(=O)NCCSc1ccccn1)S(=O)(=O)c1ccccc1 | -23.1% |
| O=C(NCc1nc2ccccc2[nH]1)C1=C[C@H](c2coc3ccccc3c2=O)C[C@H](OCCCCO)O1 | -50.7% |
| CN1CCC(=C(c2ccc(Cl)cc2)c2ccccn2)CC1.O=C([O-])/C=C\C(=O)[O-] | -40.5% |
| CSc1ccc(S(=O)(=O)N2CCC(C(=O)Nc3ccc(C(N)=O)cc3)CC2)cc1 | 17.5% |
| COc1ccc(-n2nnnc2-c2cn(C)nc2C(F)(F)F)cc1 | 7.65% |
| Cc1ccc(C2=NN(C3=NN=C(N)Cc4ncnn43)C(O)(C(F)(F)F)C2)cc1 (centres unmarked) | 18.8% |
| CCOC(=O)C(=Nc1ccccc1)NO | 7.76% |
| CCOC(=O)C1CCCN(c2c(NCCc3ccc(Cl)cc3)c(=O)c2=O)C1 (centres unmarked) | -13.6% |
| Cc1ccccc1CS(=O)(=O)c1nnc([C@H](Cc2ccccc2)NC(=O)OC(C)(C)C)o1 | -10.2% |
| COC(=O)C1C2C=CC3(CN(C(C)C)C(=O)C13)O2 (centres unmarked) | 12.3% |
| CCN(CC)S(=O)(=O)c1ccc(C(=O)NC2CN3CCC2CC3)cc1 (centres unmarked) | 25.6% |
| Cc1cccc(N/C(N)=N/c2nc(C(F)(F)F)cc(C(F)(F)F)n2)c1 | 15.6% |
| CNC(=O)c1ccccc1S(=O)(=O)c1ccccc1C#N | 11.6% |
| COc1ccc(/C=C/C(=O)NC2CCCCCC2)cc1S(=O)(=O)N1CCOCC1 | -19.4% |
| Cc1nn(C)c(C(=O)Nc2ccc(S(=O)(=O)NC34CC5CC(CC(C5)C3)C4)cc2)c1Br | 9.77% |
| COc1ccc(NC(=O)CCC(=O)N/N=C/c2ccc([N+](=O)[O-])s2)cc1 | -8.54% |

| SMILES | hERG current change (%, negative = inhibition) at 10uM |
| --- | --- |
| CN(CC(=O)Nc1cccc(F)c1)CC(=O)Nc1ccccc1Oc1ccccc1.O=C(O)C(=O)O | -25.4% |
| Cn1c(=N)c(S(=O)(=O)c2ccccc2)cc2c(=O)n3ccccc3nc21 | -4.58% |
| CCc1ccccc1Nc1nc(N)nc(CSCC(=O)Nc2ccc(C)c(C)c2)n1 | -36.8% |
| O=S(=O)(c1ccc2nc(-c3ccccc3)[nH]c2c1)N1CCN(c2cccc(Cl)c2)CC1 | 15.3% |
| Clc1ccccc1/C=C/c1nc(-c2cccnc2)no1 | 6.16% |
| COc1ccc(C(CNC(=O)c2ccccc2SC)N(C)C)cc1 (centres unmarked) | 2.02% |
| O=c1c2ccccc2nc2ccc(NCc3ccco3)nn12 | -43.8% |
| Cc1ccc(Nc2cc(C)nc(-c3ccccc3)n2)cc1 | -1.86% |
| O=C(CCNS(=O)(=O)c1c(Cl)cccc1Cl)OCC(=O)c1ccccc1 | -1.75% |
| COc1cc(OC)nc(NC(=O)COC(=O)C2CCCCC2)n1 | -0.806% |
| COc1ccc(OC2OC3COC(C)(C)OC3C(O)C2NC(C)=O)cc1 (centres unmarked) | 5.2% |
| Cc1ccc(Cn2nnc3c(=O)[nH]c(C4CCCN(S(=O)(=O)c5ccccc5)C4)nc32)cc1 (centres unmarked) | -2.74% |
| Nc1nc(SCCC(F)=C(F)F)n[nH]1 | -21% |
| COc1ccc(NC(=O)C2CCCN(S(=O)(=O)c3c(C)[nH]c(=O)[nH]c3=O)C2)cc1 (centres unmarked) | -10.9% |
| COc1ccc(-n2ccnc2SCC(=O)NO)cc1 | 9.62% |
| O=C(/C=C/c1ccc([N+](=O)[O-])cc1)c1cccnc1 | -53% |
| CCCNC(=O)CC1Sc2ccccc2NC1=O (centres unmarked) | 9.03% |
| CCOc1ccc(NC(=O)C2CCN(S(=O)(=O)c3cccs3)CC2)cc1 | 7.96% |
| CCc1cccc(CC)c1N(COC)C(=O)Cn1c(C(C)O)nc2ccccc21 (centres unmarked) | -7.8% |
| CCOC(=O)c1c(C)c(C(=O)N2CCN(c3cccc(Cl)c3)CC2)c(C)n1C | -23.6% |
